# Some of the results follow.
# B1: Gal 7 (Homo sapiens) (protein)
# chain: MSNVPHKSSLPEGIRPGTVLRIRGLVPPNASRFHVNLLCGEEGGSDAALHFNPRLDTSEVVFNSKEGGSWGREESGPGVPFGRGQPFEVLIIASDDGFKAVVGDAQYHHFRHRLPLARVRLVEVGGDVQLDSVRIF
# How the values were obtained:
# Assay in all cases: glycan array binding signal (z-score within array); higher = stronger binding
# Conditions in all cases: glycan notation: IUPAC condensed, linker removed; mutation: R74S
# [1] = target: Neu5Ac(a2-3)Gal(b1-3)GlcNAc(b1-6)GalNAc
# Method in brief: (§1)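 Negative Z-scores can be read as non-binding. The Z-score is calculated within each array and then averaged across arrays of one protein sequence at different concentrations or buffers and across linkers. Arrays, 3228 in all, were curated from the Consortium for Functional Glycomics database and kept only where the protein sequence was available.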
# [2] = target: Neu5Ac(a2-3)Gal(b1-3)GlcNAc6S
# Method in brief: as §1
# [3] = target: Neu5Ac(a2-3)Gal(b1-3)[Fuc(a1-4)]GlcNAc
# Method in brief: as §1
# [4] = target: Neu5Ac(a2-3)Gal(b1-3)[Fuc(a1-4)]GlcNAc(b1-3)Gal(b1-3)[Fuc(a1-4)]GlcNAc
# Method in brief: as §1
# [5] = target: Neu5Ac(a2-3)Gal(b1-3)[Fuc(a1-4)]GlcNAc(b1-3)Gal(b1-4)[Fuc(a1-3)]GlcNAc
# Method in brief: as §1
# [6] = target: Neu5Ac(a2-3)Gal(b1-3)[GlcNAc(b1-6)]GalNAc
# Method in brief: as §1
# [7] = target: Neu5Ac(a2-3)Gal(b1-3)[Neu5Ac(a2-6)]GalNAc
# Method in brief: as §1
# [8] = target: Neu5Ac(a2-3)Gal(b1-3)[Neu5Ac(a2-6)]GlcNAc(b1-3)[Fuc(a1-3)[Gal(b1-4)]GlcNAc(b1-6)]Gal(b1-4)Glc
# Method in brief: as §1
# [9] = target: Neu5Ac(a2-3)Gal(b1-3)]Neu5Ac(a2-3)Gal(b1-4)]GlcNAc
# Method in brief: as §1
# Neu5Ac(a2-3)Gal(b1-4)Glc = target: Neu5Ac(a2-3)Gal(b1-4)Glc
# Method in brief: as §1
# [10] = target: Neu5Ac(a2-3)Gal(b1-4)GlcNAc
# Method in brief: as §1
# [11] = target: Neu5Ac(a2-3)Gal(b1-4)GlcNAc(b1-2)Man
# Method in brief: as §1
# [12] = target: Neu5Ac(a2-3)Gal(b1-4)GlcNAc(b1-2)Man(a1-3)[GlcNAc(b1-4)][Neu5Ac(a2-3)Gal(b1-4)GlcNAc(b1-2)Man(a1-6)]Man(b1-4)GlcNAc(b1-4)GlcNAc
# Method in brief: as §1
# [13] = target: Neu5Ac(a2-3)Gal(b1-4)GlcNAc(b1-2)Man(a1-3)[Neu5Ac(a2-3)Gal(b1-4)GlcNAc(b1-2)Man(a1-6)]Man(b1-4)GlcNAc(b1-4)GlcNAc
# Method in brief: as §1
# [14] = target: Neu5Ac(a2-3)Gal(b1-4)GlcNAc(b1-2)Man(a1-3)[Neu5Ac(a2-3)Gal(b1-4)GlcNAc(b1-2)Man(a1-6)]Man(b1-4)GlcNAc(b1-4)[Fuc(a1-6)]GlcNAc
# Method in brief: as §1
# [15] = target: Neu5Ac(a2-3)Gal(b1-4)GlcNAc(b1-2)Man(a1-3)[Neu5Ac(a2-6)Gal(b1-4)GlcNAc(b1-2)Man(a1-6)]Man(b1-4)GlcNAc(b1-4)GlcNAc
# Method in brief: as §1
# [16] = target: Neu5Ac(a2-3)Gal(b1-4)GlcNAc(b1-2)[Neu5Ac(a2-3)Gal(b1-4)GlcNAc(b1-4)]Man(a1-3)[GlcNAc(b1-4)][Neu5Ac(a2-3)Gal(b1-4)GlcNAc(b1-2)[Neu5Ac(a2-3)Gal(b1-4)GlcNAc(b1-6)]Man(a1-6)]Man(b1-4)GlcNAc(b1-4)GlcNAc
# Method in brief: as §1
# [17] = target: Neu5Ac(a2-3)Gal(b1-4)GlcNAc(b1-2)[Neu5Ac(a2-3)Gal(b1-4)GlcNAc(b1-4)]Man(a1-3)[GlcNAc(b1-4)][Neu5Ac(a2-3)Gal(b1-4)GlcNAc(b1-4)Man(a1-6)]Man(b1-4)GlcNAc(b1-4)GlcNAc
# Method in brief: as §1
# [18] = target: Neu5Ac(a2-3)Gal(b1-4)GlcNAc(b1-2)[Neu5Ac(a2-3)Gal(b1-4)GlcNAc(b1-6)]Man(a1-6)[Neu5Ac(a2-3)Gal(b1-4)GlcNAc(b1-2)Man(a1-3)][GlcNAc(b1-4)]Man(b1-4)GlcNAc(b1-4)GlcNAc
# Method in brief: as §1
# [19] = target: Neu5Ac(a2-3)Gal(b1-4)GlcNAc(b1-3)Gal
# Method in brief: as §1
# [20] = target: Neu5Ac(a2-3)Gal(b1-4)GlcNAc(b1-3)Gal(b1-3)GlcNAc
# Method in brief: as §1
# [21] = target: Neu5Ac(a2-3)Gal(b1-4)GlcNAc(b1-3)Gal(b1-4)GlcNAc
# Method in brief: as §1
# [22] = target: Neu5Ac(a2-3)Gal(b1-4)GlcNAc(b1-3)Gal(b1-4)GlcNAc(b1-2)Man(a1-3)[Neu5Ac(a2-3)Gal(b1-4)GlcNAc(b1-3)Gal(b1-4)GlcNAc(b1-2)Man(a1-6)]Man(b1-4)GlcNAc(b1-4)GlcNAc
# Method in brief: as §1
# [23] = target: Neu5Ac(a2-3)Gal(b1-4)GlcNAc(b1-3)Gal(b1-4)GlcNAc(b1-3)Gal(b1-4)GlcNAc
# Method in brief: as §1
# [24] = target: Neu5Ac(a2-3)Gal(b1-4)GlcNAc(b1-3)Gal(b1-4)GlcNAc(b1-3)Gal(b1-4)GlcNAc(b1-2)Man(a1-3)[Neu5Ac(a2-3)Gal(b1-4)GlcNAc(b1-3)Gal(b1-4)GlcNAc(b1-3)Gal(b1-4)GlcNAc(b1-2)Man(a1-6)]GalNAc
# Method in brief: as §1
# [25] = target: Neu5Ac(a2-3)Gal(b1-4)GlcNAc(b1-3)Gal(b1-4)GlcNAc(b1-3)GalNAc
# Method in brief: as §1
# [26] = target: Neu5Ac(a2-3)Gal(b1-4)GlcNAc(b1-3)Gal(b1-4)GlcNAc(b1-3)[Neu5Ac(a2-3)Gal(b1-4)GlcNAc(b1-3)Gal(b1-4)GlcNAc(b1-6)]GalNAc
# Method in brief: as §1
# [27] = target: Neu5Ac(a2-3)Gal(b1-4)GlcNAc(b1-3)Gal(b1-4)GlcNAc(b1-6)[Gal(b1-3)]GalNAc
# Method in brief: as §1
# [28] = target: Neu5Ac(a2-3)Gal(b1-4)GlcNAc(b1-3)Gal(b1-4)[Fuc(a1-3)]GlcNAc
# Method in brief: as §1
# [29] = target: Neu5Ac(a2-3)Gal(b1-4)GlcNAc(b1-3)GalNAc
# Method in brief: as §1
binder,measurement,setting,value
B1,glycan array binding signal (z-score),[1],-0.428
same,glycan array binding signal (z-score),[2],-0.219
same,glycan array binding signal (z-score),[3],-0.561
same,glycan array binding signal (z-score),[4],0.209
same,glycan array binding signal (z-score),[5],0.456
same,glycan array binding signal (z-score),[6],-0.436
same,glycan array binding signal (z-score),[7],-0.412
same,glycan array binding signal (z-score),[8],0.154
same,glycan array binding signal (z-score),[9],-0.355
same,glycan array binding signal (z-score),Neu5Ac(a2-3)Gal(b1-4)Glc,-0.141
same,glycan array binding signal (z-score),[10],-0.58
same,glycan array binding signal (z-score),[11],0.603
same,glycan array binding signal (z-score),[12],-0.325
same,glycan array binding signal (z-score),[13],-0.442
same,glycan array binding signal (z-score),[14],0.751
same,glycan array binding signal (z-score),[15],-0.512
same,glycan array binding signal (z-score),[16],-0.437
same,glycan array binding signal (z-score),[17],-0.179
same,glycan array binding signal (z-score),[18],-0.024
same,glycan array binding signal (z-score),[19],-0.541
same,glycan array binding signal (z-score),[20],-0.714
same,glycan array binding signal (z-score),[21],-0.509
same,glycan array binding signal (z-score),[22],0.032
same,glycan array binding signal (z-score),[23],-0.093
same,glycan array binding signal (z-score),[24],1.21
same,glycan array binding signal (z-score),[25],-0.558
same,glycan array binding signal (z-score),[26],-0.32
same,glycan array binding signal (z-score),[27],-0.149
same,glycan array binding signal (z-score),[28],-0.278
same,glycan array binding signal (z-score),[29],-0.311
